The campaign covered roughly 310,000 compounds. About 14,000 (4.5%) showed an effect of 50% or more. Effects have a minus sign here. The list shows a part of the results.
These compounds were tested against human ether-à-go-go-related gene (hERG) potassium channel (human, UniProt Q12809) (assay: primary screen, population patch clamp on CHO cells stably expressing hERG).
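Further: peak tail current of the secondary pulse compared with the same well before compound.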

Chain of human ether-à-go-go-related gene (hERG) potassium channel (Q12809 whole entry, looked up): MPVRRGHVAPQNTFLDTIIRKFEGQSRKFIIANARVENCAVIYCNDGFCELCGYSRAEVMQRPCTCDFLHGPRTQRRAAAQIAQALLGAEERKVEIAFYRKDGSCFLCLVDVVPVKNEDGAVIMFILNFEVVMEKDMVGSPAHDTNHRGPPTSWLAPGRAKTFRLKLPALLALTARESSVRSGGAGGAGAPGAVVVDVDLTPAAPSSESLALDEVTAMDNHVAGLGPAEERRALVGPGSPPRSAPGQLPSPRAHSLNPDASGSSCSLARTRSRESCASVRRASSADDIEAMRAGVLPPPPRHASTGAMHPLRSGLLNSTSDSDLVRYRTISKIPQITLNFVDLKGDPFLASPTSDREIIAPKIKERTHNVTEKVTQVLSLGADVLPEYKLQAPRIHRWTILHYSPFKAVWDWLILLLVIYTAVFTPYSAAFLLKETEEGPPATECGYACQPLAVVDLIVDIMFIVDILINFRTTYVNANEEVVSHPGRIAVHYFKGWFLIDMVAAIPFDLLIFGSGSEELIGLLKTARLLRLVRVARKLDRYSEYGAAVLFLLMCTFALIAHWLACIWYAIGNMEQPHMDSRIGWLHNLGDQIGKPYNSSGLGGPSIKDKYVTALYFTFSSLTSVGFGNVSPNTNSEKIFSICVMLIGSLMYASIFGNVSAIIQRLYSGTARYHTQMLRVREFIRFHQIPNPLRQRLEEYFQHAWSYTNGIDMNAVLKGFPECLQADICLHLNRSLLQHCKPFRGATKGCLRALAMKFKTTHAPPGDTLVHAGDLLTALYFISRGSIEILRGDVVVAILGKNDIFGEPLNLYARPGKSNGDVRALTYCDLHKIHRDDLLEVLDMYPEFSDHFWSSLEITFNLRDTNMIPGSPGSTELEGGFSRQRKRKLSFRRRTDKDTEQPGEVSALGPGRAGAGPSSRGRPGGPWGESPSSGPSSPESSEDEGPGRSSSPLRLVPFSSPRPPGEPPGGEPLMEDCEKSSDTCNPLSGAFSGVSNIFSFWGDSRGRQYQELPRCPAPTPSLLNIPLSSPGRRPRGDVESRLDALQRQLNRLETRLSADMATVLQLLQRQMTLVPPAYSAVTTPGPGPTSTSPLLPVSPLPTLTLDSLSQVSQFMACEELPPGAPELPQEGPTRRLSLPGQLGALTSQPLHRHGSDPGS

Going from `COc1ccc(CN2CCN(Cc3ccon3)CC2CCO)c(C)c1C` (stereo not drawn) to `COc1ccc(NC(=O)NCCN2CCN(c3cc(OC)ccc3OC)CC2)cc1`, the “hERG current change (%, negative = inhibition) at 10uM” value rises from -37.3% to -2.75%.

First: COc1ccc(C(=O)c2c(C)c(CCC#N)n3ccccc23)c(OC)c1
Second: Cc1cccc(OCCCCn2c(CO)nc3ccccc32)c1
The “hERG current change (%, negative = inhibition) at 10uM” value of the first is higher: -5.38% for the first, -5.5% for the second.

Going from `CC(=NCC1CCCO1)c1c(O)n(-c2ccc(C)cc2)c(=O)[nH]c1=O` (stereo not drawn) to `Cc1ccc(NC(=S)NNC(=O)CSc2nc3ccccc3c(=O)n2-c2ccc(C)cc2)cc1`, the “hERG current change (%, negative = inhibition) at 10uM” value rises from -8.18% to -0.606%.

First: O=C(CCS(=O)(=O)c1ccc(Br)s1)NC1CCCC1
Second: C[C@H]1CN(C2CCCCC2)C(=O)[C@@H]1CC(=O)NCc1ccccc1
The “hERG current change (%, negative = inhibition) at 10uM” value of the first is higher: 6.05% for the first, -6.72% for the second.

Compared with `Cc1ccc(-n2ncc3c2CC(C)(C)CC3NC(=O)c2ccncc2)cc1` (stereo not drawn), `COc1ccccc1C(=O)Nc1c2c(nn1-c1ccc(Cl)cc1)CS(=O)(=O)C2` is higher in “hERG current change (%, negative = inhibition) at 10uM” value: -72.2% for the first, 9.63% for the second.

Going from `O=C(NCCc1ccccc1)C(=O)NCC1CCCN1S(=O)(=O)c1cccs1` (stereo not drawn) to `CCOc1ccc(NC(=O)C(=O)NCC2CCCN2CC)cc1` (stereo not drawn), the “hERG current change (%, negative = inhibition) at 10uM” value rises from -22.7% to -16.4%.

Compared with `NC1=CC(=O)c2cccc3cccc1c23`, `Cc1cccc(NC(=O)NCc2ccc3[nH]c(C)cc3c2)c1` is higher in “hERG current change (%, negative = inhibition) at 10uM” value: 10.2% for the first, 19.7% for the second.

Compared with `CC1CCCN(CCC(=O)Nc2ccc(F)c(F)c2)C1` (stereo not drawn), `CCN1CCN(CC(=O)Nc2ccc3c(c2)OCO3)C(=O)C1=O` is higher in “hERG current change (%, negative = inhibition) at 10uM” value: -30.1% for the first, -3.39% for the second.

Compared with `CCc1nc(Nc2ccccc2)c2oc3ccccc3c2n1.Cl`, `OCCCNc1c2ccccc2nc2ccccc12` is lower in “hERG current change (%, negative = inhibition) at 10uM” value: -5.28% for the first, -65.6% for the second.

First: Cc1cc(C)n(Cc2ccc(C(=O)NCc3ccco3)o2)n1
Second: CNC(=S)N(CCc1c(C)[nH]c2ccc(F)cc12)Cc1ccco1
The “hERG current change (%, negative = inhibition) at 10uM” value of the first is higher: 1.88% for the first, 0.221% for the second.

Going from `CC(=O)c1cccc(NC(=O)NCCc2c[nH]c3ccccc23)c1` to `O=C(COC(=O)c1cccc2ccccc12)Nc1ncc(C(F)(F)F)cc1Cl`, the “hERG current change (%, negative = inhibition) at 10uM” value rises from -4.67% to 13%.

Going from `CCOC(=O)N1CCN(C(=O)C(NC(=O)c2ccco2)C(C)C)CC1` (stereo not drawn) to `Cc1cccc(NC(=O)CN2CCN(C(=O)c3cnn(Cc4ccccc4)c3)CC2)c1C`, the “hERG current change (%, negative = inhibition) at 10uM” value falls from 13.2% to -87.2%.

Going from `Cc1ccc(S(=O)(=O)N2CCCC(C(=O)NCc3cccnc3)C2)cc1Cl` (stereo not drawn) to `CN(CC(=O)Nc1cccc(F)c1)C(=O)c1cc(S(=O)(=O)N(C)C)ccc1N1CCCC1`, the “hERG current change (%, negative = inhibition) at 10uM” value rises from -20.9% to -5.03%.

Going from `CCOC(=O)Cc1csc(/N=C/c2c(O)n(-c3ccc(C)c(C)c3)c(=O)c3ccccc23)n1` to `COc1cc2c(cc1NC(=O)CN1C(=O)NC3(CCc4ccccc43)C1=O)oc1ccccc12` (stereo not drawn), the “hERG current change (%, negative = inhibition) at 10uM” value rises from -11% to 7.1%.

Going from `Cc1ccc(S(=O)(=O)N2CCN(C(=O)Cc3ccc(S(=O)(=O)N4CCOCC4)s3)CC2)cc1` to `O=C(c1cc2ccccc2o1)N1CCN(S(=O)(=O)/C=C/c2ccccc2)CC1`, the “hERG current change (%, negative = inhibition) at 10uM” value falls from 8.35% to -30.8%.

Compared with `COc1ccc2cc(S(=O)(=O)NCCCN3CCOCC3)ccc2c1`, `O=C(CN1CCOCC1)Nc1ccc(Br)cn1` is higher in “hERG current change (%, negative = inhibition) at 10uM” value: -18.8% for the first, -8.93% for the second.

Compared with `CCOC(=O)C1=NN(C(=O)c2cccc(Br)c2)C(O)(C(C)(C)C)C1` (stereo not drawn), `CCOC(=O)CC1=Nc2ccccc2NC(=O)C1` is higher in “hERG current change (%, negative = inhibition) at 10uM” value: -57.6% for the first, 2.57% for the second.

Going from `CCCC(=Nc1ccc(N)cc1)C1=C(O)C(C(=O)OC)C(C)(C)CC1=O` (stereo not drawn) to `Cc1ccc(C)c(NC(=O)C2CCC(C)(C(=O)O)C2(C)C)c1` (stereo not drawn), the “hERG current change (%, negative = inhibition) at 10uM” value falls from 3.53% to -18.4%.

Going from `Cc1nn(C)cc1/C=N/NC(=O)Cn1nnc(N)n1` to `Cn1nnnc1SCC(=O)NC(C)(C)C`, the “hERG current change (%, negative = inhibition) at 10uM” value falls from 15.9% to -3.45%.

Compared with `CCOC(=O)CSc1nnc(-c2ccccc2)o1`, `Cc1ccccc1Nc1nnc(SCC(=O)NCc2cccs2)s1` is lower in “hERG current change (%, negative = inhibition) at 10uM” value: 7.66% for the first, -5.79% for the second.

Going from `Cn1c(SCC(=O)Nc2cccnc2)nnc1-c1ccccc1F` to `COCc1cc(C)nc(SCC(=O)Nc2ccc3c(c2)n(C)c(=O)n3C)c1C#N`, the “hERG current change (%, negative = inhibition) at 10uM” value rises from 20.9% to 22.7%.

Going from `Cc1ccc2c(c1)sc(C)[n+]2CCCS(=O)(=O)[O-]` to `COC(=O)c1c(C)[nH]c(C)c1-c1ccc([N+](=O)[O-])cc1`, the “hERG current change (%, negative = inhibition) at 10uM” value falls from 29.7% to 2.12%.

First: CC(C)(C)c1csc(NC2=NS(=O)(=O)c3ccccc32)n1
Second: CC(C)(C)c1cc(C(=O)N2CCN(c3ncccn3)CC2)ccn1
The “hERG current change (%, negative = inhibition) at 10uM” value of the first is higher: 8.84% for the first, -11.7% for the second.

Going from `S=c1[nH]c2ccccc2[nH]1` to `CCOc1ccccc1NC(=O)C1CCN(S(C)(=O)=O)CC1`, the “hERG current change (%, negative = inhibition) at 10uM” value falls from 4.88% to 1.63%.

First: O=C(Nc1ccc2oc(-c3ccncc3)nc2c1)c1c(F)c(F)c(F)c(F)c1F
Second: O=C(COc1ccc(F)cc1)c1c(O)cc(O)cc1O
The “hERG current change (%, negative = inhibition) at 10uM” value of the first is higher: 12.4% for the first, 3.74% for the second.

First: COc1ccccc1CN1C[C@@H]2C[C@@H](C3=Cc4cc(Cl)ccc4OC3)N3CCC[C@@]23C1=O
Second: CC(=O)Nc1ccc(NC(=O)C(=O)c2cn(CC(=O)N3CCCC3)c3ccccc23)cc1
The “hERG current change (%, negative = inhibition) at 10uM” value of the first is lower: -41.4% for the first, 18% for the second.

First: Cc1oc(-c2ccc(Cl)cc2)nc1CN1CCC(C(=O)NCCCN2CCCC2=O)CC1
Second: Cc1cccn2c(=O)nc(SCC(=O)N3CCC(C)CC3)nc12
The “hERG current change (%, negative = inhibition) at 10uM” value of the first is higher: -33.9% for the first, -39.5% for the second.

First: CCn1c(SCC(=O)N2CCOCC2)nc2oc3c(Cl)cc(Cl)cc3c(=O)c2c1=O
Second: Cc1cc(C)c(C(N)=O)c(Nc2ccc3c(c2)OCCO3)n1
The “hERG current change (%, negative = inhibition) at 10uM” value of the first is lower: -49% for the first, 0.162% for the second.

In the case of `O=S(=O)(NCCc1csc(-c2cccnc2)n1)c1cccs1`, the “hERG current change (%, negative = inhibition) at 10uM” value is reported as -13.7%.

From article PMC4336329 (PLoS ONE, 2015)
